Results on one compound are retold here after patent publication US20220408731A1, “MODIFIED ANTIMICROBIAL PEPTIDES” (priority 2021, published 2022).

Each structure is given as a SMILES string.

The test system of one assay is C. albicans. Description: Peptide or protein/Fluconazole combination, MIC and FICI. The conditions noted are these: Full Length MtDef4 Protein/Fluconazole combination.
Another assay deals with C. glabrata. The assay is described as above. The following applies: Full Length MtDef4 Protein/Fluconazole combination.

Regarding `OC(Cn1cncn1)(Cn1cncn1)c1ccc(F)cc1F` [Fluconazole], in the assay with C. albicans, the “MIC in combination (μM)” value was found to be 6.45 µM and the “MIC in combination μg/ml” value was found to be 2 µg/mL. Also, in the assay on C. glabrata, the “MIC in combination” value is 206 µM.
